Measurements published in paper PMC4336329 (PLoS ONE, 2015).
Out of some 310,000 compounds screened, about 2,200 (0.71%) showed an effect of 50% or more. Effects have a minus sign here. The list shows a part of the results.

Target: human ether-à-go-go-related gene (hERG) potassium channel (human, UniProt Q12809)
Experiment: primary screen, population patch clamp on CHO cells stably expressing hERG

Sequence of human ether-à-go-go-related gene (hERG) potassium channel (Q12809 whole entry, looked up): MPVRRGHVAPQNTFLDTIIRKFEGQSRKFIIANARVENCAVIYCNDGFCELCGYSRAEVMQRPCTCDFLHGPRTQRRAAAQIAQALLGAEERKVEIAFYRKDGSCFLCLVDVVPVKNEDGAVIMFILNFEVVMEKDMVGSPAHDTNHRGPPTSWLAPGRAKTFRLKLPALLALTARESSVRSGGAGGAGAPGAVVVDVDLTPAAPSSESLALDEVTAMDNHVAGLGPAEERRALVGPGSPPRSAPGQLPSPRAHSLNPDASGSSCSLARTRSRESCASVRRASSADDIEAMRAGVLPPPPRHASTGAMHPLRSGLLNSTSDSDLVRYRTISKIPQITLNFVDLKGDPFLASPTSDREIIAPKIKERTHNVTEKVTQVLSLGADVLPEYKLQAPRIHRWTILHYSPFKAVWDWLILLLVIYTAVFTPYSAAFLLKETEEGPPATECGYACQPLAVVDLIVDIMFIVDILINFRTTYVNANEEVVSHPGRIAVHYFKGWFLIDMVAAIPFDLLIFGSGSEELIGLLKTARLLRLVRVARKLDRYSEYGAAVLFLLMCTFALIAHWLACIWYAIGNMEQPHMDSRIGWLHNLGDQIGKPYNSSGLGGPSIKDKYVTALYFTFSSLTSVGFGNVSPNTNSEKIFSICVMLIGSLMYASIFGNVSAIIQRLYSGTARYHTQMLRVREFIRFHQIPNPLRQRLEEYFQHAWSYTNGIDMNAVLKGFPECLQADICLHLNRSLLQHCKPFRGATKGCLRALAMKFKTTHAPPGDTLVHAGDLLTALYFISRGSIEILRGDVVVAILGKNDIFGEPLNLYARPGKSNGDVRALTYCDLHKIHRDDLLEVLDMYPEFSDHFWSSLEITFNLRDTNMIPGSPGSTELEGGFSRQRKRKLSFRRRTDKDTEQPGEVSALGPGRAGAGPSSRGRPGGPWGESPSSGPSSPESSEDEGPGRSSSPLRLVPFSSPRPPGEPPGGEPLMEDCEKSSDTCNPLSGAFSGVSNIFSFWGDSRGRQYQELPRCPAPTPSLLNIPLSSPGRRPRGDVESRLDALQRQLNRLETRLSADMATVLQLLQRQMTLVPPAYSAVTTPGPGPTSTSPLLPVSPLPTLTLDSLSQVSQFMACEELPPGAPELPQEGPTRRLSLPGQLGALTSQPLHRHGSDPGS

SMILES	hERG current change (%, negative = inhibition) at 1uM
Cc1ccc(C(=O)NCC(=O)OCC(=O)NCCNC(=O)COC(=O)CNC(=O)c2ccc(C)cc2)cc1	9.41%
CC(C)OC(=O)c1sc2nc(-c3ccccc3)ccc2c1N	13.2%
COc1ccccc1CC(=O)N1CCN(c2ccc([N+](=O)[O-])cc2)CC1	-8.15%
COc1cc(C2Nc3ccccc3C(=O)N2NS(C)(=O)=O)c([N+](=O)[O-])cc1OC (stereo not shown)	6.71%
COc1cccc(CNC(=O)c2cc(C3CC3)nc3c2cnn3C(C)C)c1	-0.644%
Cc1ccc(-n2c(N)c(C(=O)NCc3cccnc3)sc2=S)cc1	17.7%
Cc1ccc(OC(=O)c2oc3ccc(F)cc3c2C)c(C)c1	-0.814%
CC(=O)c1ccc(NC(=O)CSC2=NS(=O)(=O)c3cc(Cl)ccc3N2)cc1	17%
O=C(COC(=O)/C=C/c1nc2ccccc2s1)Nc1cccc(Cl)c1Cl	9.67%
O=[N+]([O-])c1cccc2c(N3CCOCC3)ccnc12	10%
CC(C)(C)N1CC(C(=O)O)CC1=O (stereo not shown)	16.8%
Nc1ccc(Cl)cc1C(=O)c1ccccc1Cl	14%
C/C(NC1CCCCC1)=C(/C#N)C(=O)NCCN1CCOCC1	5.52%
COc1ccccc1C(=O)NC(C)c1cccc2ccccc12 (stereo not shown)	12.4%
CCOc1ccc2ccccc2c1CNc1nnnn1CC	4.39%
CC(=O)c1c(C(C)=O)c(C)n(-c2nc(-c3ccc(C)c(C)c3)c(C)s2)c1C	17%
N#Cc1nc(-c2ccccc2F)oc1N1CCCC1	5.59%
Cc1ccc(C(=O)NCCC(=O)N2CCC3(CC2)NCCc2[nH]cnc23)cc1C	9.47%
CCCN1C(=O)/C(=C/c2ccccc2OCc2ccc(C(=O)O)cc2)NC1=S	8.39%
CCOc1ccc(N2C(=O)CC(Sc3n[nH]c(-c4ccccc4)n3)C2=O)cc1 (stereo not shown)	14.2%
O=C(Cc1csc(Nc2nc(=S)[nH]c3ccccc23)n1)N1CCN(c2cccc(Cl)c2)CC1	11.8%
CCn1c(SCC(=O)NC2CCCC2)nnc1C(C)NC(=O)c1ccccc1F (stereo not shown)	19.8%
Cc1ccc(S(=O)(=O)N2CCCC2C(=O)N(C)Cc2cccs2)cc1 (stereo not shown)	-2.75%
Cc1ccc(C)c2c3c([nH]c12)-c1nonc1CC3	9.91%
O=C(O)C(=O)O.O=C(c1ccccc1)c1ccc(OCC(O)CNCc2cccc(Cl)c2)cc1 (stereo not shown)	9.18%
COC(=O)c1ncn(C2OC(COC(C)=O)C(OC(C)=O)C2OC(C)=O)n1 (stereo not shown)	0.268%
CCN1C(=O)[C@H]2[C@@H](c3ccc(-c4ccc(Cl)c(Cl)c4)c(OC)c3)N[C@@](Cc3ccccc3)(C(=O)OC)[C@H]2C1=O.O=C(O)C(F)(F)F	16.8%
COC1=C(Nc2ccc(C)cc2)C(=O)c2ccccc2C1=O	7.51%

SMILES	hERG current change (%, negative = inhibition) at 1uM
Cc1ccc(/C=N/Nc2ncc(Cl)cc2Cl)s1	10.4%
O=C1c2nc3cc(-c4ccco4)[nH]n3c(=O)c2CN1C1CCCCC1	10.3%
Cc1cccc(NC(=O)Cc2coc3ccc4ccccc4c23)n1	3.43%
CN(CCc1ccccn1)Cc1ccc(Cl)cc1	-24.6%
CCOc1ccc(/C=N/NC(=O)Cc2ccccc2)cc1CN1CC2CC(C1)c1cccc(=O)n1C2 (stereo not shown)	11%
C=CCn1c(SCc2csc(-c3ccc(Cl)cc3)n2)nnc1-c1ccccc1OC	6.88%
Cn1cccc1/C=N/NC(=O)CNc1cccc2ccccc12	7.77%
Cc1nn(-c2ccc(Cl)cc2)c2[nH]c(=O)c(CNCc3ccc4c(c3)OCO4)cc12	-20.9%
CCCCN(C)C(=O)C(Cc1ccccc1)NS(=O)(=O)c1ccc2c(c1)CCC(=O)N2 (stereo not shown)	-7.18%
O=S(=O)(Nc1ccon1)c1cc(Cl)ccc1Cl	13.1%
CC(C)c1nnc(NC(=O)c2c(O)c3cccc4c3n(c2=O)CCC4)s1	13.9%
Cc1cccc(NS(=O)(=O)c2cn(C)c(=O)n(C)c2=O)c1C	10.3%
N/C(=N\O)c1ccncc1	13.8%
CCC(C(=O)OCC(=O)N(CC)c1c(N)n(Cc2ccccc2)c(=O)[nH]c1=O)c1ccccc1 (stereo not shown)	0.82%
O=C(Nc1ccc(Cl)cc1)c1cccc(N2C(=O)C3C4CCC(C4)C3C2=O)c1 (stereo not shown)	11.7%
CCOC(=O)N1CCN(c2c(NCc3ccccc3Cl)c(=O)c2=O)CC1	11.9%
O=C(NC(=S)Nc1nc2ccc(F)cc2s1)c1ccco1	7.83%
CCOc1cc(CN2CCN(c3cccc(C(F)(F)F)c3)CC2)ccc1OC	-10.1%
COc1cc(CC(=O)NCCc2ccc(S(N)(=O)=O)cc2)cc(OC)c1OC	12.6%
Cn1c(=O)c2ccccc2n2c(=S)[nH]nc12	19.2%
O=C(CSc1nnnn1-c1cccnc1)Nc1ccccc1F	22%
CCn1c2ccccc2c2cc(N=C3SC(CC(=O)Nc4ccccc4OC)C(=O)N3CCOC)ccc21 (stereo not shown)	3.61%
CCN(C(=O)COc1nc(C)cc(C)c1C#N)c1ccccc1	7.37%
COc1ccc(-c2cc(C(=O)OCC(=O)NC(C)C)c3ccccc3n2)cc1	0.906%
Cc1ccc(/C=C/c2nnc(-c3ccc(C)cc3)o2)cc1	7.46%
O=C1Nc2cc(C(=O)NCCCN3CCCC3)ccc2S/C1=C\c1ccccc1	-19.7%
CCN(CC)CCCNC(=S)N1CCn2c(nc3ccccc32)C1	9.71%
